Test results: the supplement of paper PMC6206098
± gives the uncertainty stated by the source. The sequences are guide strands of siRNAs; only the seed at positions 2 to 7 varies.

Columns and labels:
3LL = test: cell viability relative to siNT1 control; higher = less toxic; details: concentration: 10 nM; 96 h; Mus musculus;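 also: Luminescence-based viability of cells reverse transfected in 384-well plates with lipid-complexed siRNAs built on a non-toxic 19mer backbone whose passenger strand carries 2′-O-methyl groups at positions 1 and 2, triplicates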
H460 = test: cell viability relative to lipid-only control; HeyA8 human ovarian and H460 human lung cancer; M565 mouse liver and 3LL mouse lung cancer; siNT1 is a non-toxic control siRNA; higher = less toxic; details: concentration: 10 nM; 96 h; Homo sapiens
HeyA8 = test: as above; details: concentration: 10 nM; 96 h; Homo sapiens
M565 = test: as above; details: concentration: 10 nM; 96 h; Mus musculus
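For cell viability relative to lipid-only control in this document: reverse lipid transfection in 384-well plates, in triplicate, of duplexes on a non-toxic 19mer backbone with passenger strand 2′-O-methylated at positions 1 and 2, luminescence viability read-out.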

Sequence | cell viability (3LL) [%] | cell viability (H460) [%] | cell viability (HeyA8) [%] | cell viability (M565) [%]
UAUGCUGACAUGUAAACCAAA | 106 ± 19 | 70.2 ± 4.4 | 97.8 ± 3.7 | 77.8 ± 19
UGAAAGAACAUGUAAACCAAA | 101 ± 16 | 88.3 ± 17 | 79.9 ± 1.8 | 51.7 ± 6.2
UCGUCAGACAUGUAAACCAAA | 77.8 ± 15 | 63.6 ± 9.6 | 75.7 ± 8.3 | 66.7 ± 6.2
UAGGUGCACAUGUAAACCAAA | 29.2 ± 4.1 | 21.7 ± 6 | 6.83 ± 0.3 | 6.26 ± 2.1
UCAGCGUACAUGUAAACCAAA | 95.5 ± 12 | 85.8 ± 5.3 | 81.4 ± 4.7 | 80.1 ± 5
UCGGCUUACAUGUAAACCAAA | 82.1 ± 6.7 | 90.3 ± 14 | 54.3 ± 1.1 | 42.9 ± 6.2
UUUCCGAACAUGUAAACCAAA | 99.5 ± 5.1 | 87.9 ± 6.3 | 104 ± 2.4 | 83.3 ± 4.2
UAACUUAACAUGUAAACCAAA | 94 ± 7 | 59.1 ± 3.6 | 94.4 ± 24 | 88 ± 8.4
UGCCCACACAUGUAAACCAAA | 43.7 ± 7 | 52.7 ± 5.3 | 40.8 ± 2 | 27 ± 3.6
UGUGCCGACAUGUAAACCAAA | 38 ± 11 | 55.5 ± 3.2 | 12.8 ± 0.24 | 54.8 ± 14
UGAGCGUACAUGUAAACCAAA | 79.6 ± 17 | 58.4 ± 8.4 | 87.4 ± 2.6 | 29.5 ± 3.5
UGUUCAGACAUGUAAACCAAA | 89.2 ± 5 | 63.2 ± 3.1 | 66.9 ± 9.9 | 21.9 ± 5.9
UCGGAUUACAUGUAAACCAAA | 88.5 ± 13 | 66.2 ± 13 | 83.7 ± 7.3 | 45.2 ± 4.8
UCCCCUUACAUGUAAACCAAA | 111 ± 23 | 87.9 ± 9.6 | 80.4 ± 7.5 | 80.4 ± 14
UACGCAUACAUGUAAACCAAA | 79.1 ± 5.5 | 66.6 ± 11 | 27.4 ± 3.2 | 82.8 ± 32
UGUUAGUACAUGUAAACCAAA | 15 ± 5.1 | 57.4 ± 6.7 | 47.6 ± 11 | 62.5 ± 13
UCAGUGUACAUGUAAACCAAA | 94 ± 13 | 57.2 ± 2 | 81.8 ± 14 | 51.4 ± 7.6
UAAAGGUACAUGUAAACCAAA | 79.6 ± 1.7 | 60.9 ± 2.8 | 64.7 ± 9.3 | 38.7 ± 12
UUUCAUCACAUGUAAACCAAA | 81.1 ± 5.1 | 30.3 ± 1.6 | 53.9 ± 6.8 | 70.2 ± 2.9
UCAGACUACAUGUAAACCAAA | 93.9 ± 8.4 | 44 ± 15 | 82.1 ± 6.9 | 55.3 ± 8
UUUCUACACAUGUAAACCAAA | 50.5 ± 6 | 51.1 ± 3.4 | 76.7 ± 1.4 | 43.5 ± 9.3
UAAUGUAACAUGUAAACCAAA | 119 ± 8.1 | 103 ± 12 | 95.9 ± 4.7 | 87.2 ± 7

Sequence | cell viability (3LL) [%] | cell viability (H460) [%] | cell viability (HeyA8) [%] | cell viability (M565) [%]
UCGGCUCACAUGUAAACCAAA | 6.79 ± 0.78 | 20.3 ± 1.7 | 8.9 ± 1.1 | 68.2 ± 7.3
UUUAAAUACAUGUAAACCAAA | 95.7 ± 2 | 68.8 ± 5.1 | 96.8 ± 6.4 | 101 ± 7.8
UCAUACCACAUGUAAACCAAA | 31.7 ± 7.2 | 29.1 ± 1.6 | 65.7 ± 6.7 | 62.7 ± 17
UUAUAACACAUGUAAACCAAA | 70.4 ± 6.4 | 68.1 ± 12 | 55.4 ± 4.3 | 65.7 ± 11
UGCCCGUACAUGUAAACCAAA | 57.9 ± 5.6 | 77.9 ± 8.9 | 57.7 ± 1.6 | 60 ± 3.2
UUGCUUAACAUGUAAACCAAA | 94.7 ± 10 | 95.8 ± 9 | 97 ± 7.7 | 128 ± 29
UUAGAUGACAUGUAAACCAAA | 87.1 ± 10 | 84.1 ± 7.2 | 86.3 ± 6.1 | 63.9 ± 4.7
UUUUAGAACAUGUAAACCAAA | 94.4 ± 5.2 | 66 ± 4.3 | 96.8 ± 6.1 | 99.3 ± 20
UAGCACCACAUGUAAACCAAA | 53.2 ± 5 | 47.8 ± 2.9 | 72.9 ± 4.2 | 38.8 ± 3.2
UGGUUCCACAUGUAAACCAAA | 33.1 ± 2 | 36.2 ± 1.3 | 16.5 ± 0.46 | 15.5 ± 2.1
UUUGAAGACAUGUAAACCAAA | 97.6 ± 2.8 | 78.2 ± 2.4 | 101 ± 7.1 | 75.8 ± 5.9
UCGGCGGACAUGUAAACCAAA | 44.1 ± 10 | 23.7 ± 1.2 | 7.97 ± 0.97 | 22.4 ± 2
UCUUGGAACAUGUAAACCAAA | 96.3 ± 22 | 20.9 ± 3.3 | 10.1 ± 7.6 | 76.2 ± 23
UUCGACGACAUGUAAACCAAA | 105 ± 21 | 66.2 ± 7.2 | 99.5 ± 14 | 76 ± 11
UCACAGAACAUGUAAACCAAA | 91.8 ± 14 | 17.4 ± 3.3 | 87.7 ± 4 | 48.2 ± 7.9
UUAUGACACAUGUAAACCAAA | 35 ± 3.8 | 37.1 ± 1.6 | 43.4 ± 5.4 | 69.5 ± 10
UCCUCUUACAUGUAAACCAAA | 91.7 ± 13 | 51 ± 5 | 82.7 ± 5.6 | 65.7 ± 6.8
UUUAGAGACAUGUAAACCAAA | 94.94 ± 0.8 | 90.4 ± 10 | 97 ± 1.3 | 91.8 ± 13
UUGUGCGACAUGUAAACCAAA | 73.6 ± 15 | 70.1 ± 11 | 95.7 ± 6.4 | 90.7 ± 16
UCAGCGGACAUGUAAACCAAA | 100 ± 16 | 64.9 ± 5.4 | 78 ± 12 | 60.3 ± 14
UGACCGUACAUGUAAACCAAA | 75.5 ± 8.8 | 49.5 ± 3.3 | 77.7 ± 4.7 | 8.89 ± 3.9
